Experimental data reported in article PMC4336329 (PLoS ONE, 2015).
The whole screen tested about 310,000 compounds, of which about 14,000 (4.5%) showed an effect of 50% or more. The effect is printed as a negative number. This is one part of the list.

Target: human ether-à-go-go-related gene (hERG) potassium channel (human, UniProt Q12809)
Assay: primary screen, population patch clamp on CHO cells stably expressing hERG
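Note: peak tail current of the secondary pulse compared with the same well before compound.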

Sequence of human ether-à-go-go-related gene (hERG) potassium channel (Q12809 whole entry, looked up): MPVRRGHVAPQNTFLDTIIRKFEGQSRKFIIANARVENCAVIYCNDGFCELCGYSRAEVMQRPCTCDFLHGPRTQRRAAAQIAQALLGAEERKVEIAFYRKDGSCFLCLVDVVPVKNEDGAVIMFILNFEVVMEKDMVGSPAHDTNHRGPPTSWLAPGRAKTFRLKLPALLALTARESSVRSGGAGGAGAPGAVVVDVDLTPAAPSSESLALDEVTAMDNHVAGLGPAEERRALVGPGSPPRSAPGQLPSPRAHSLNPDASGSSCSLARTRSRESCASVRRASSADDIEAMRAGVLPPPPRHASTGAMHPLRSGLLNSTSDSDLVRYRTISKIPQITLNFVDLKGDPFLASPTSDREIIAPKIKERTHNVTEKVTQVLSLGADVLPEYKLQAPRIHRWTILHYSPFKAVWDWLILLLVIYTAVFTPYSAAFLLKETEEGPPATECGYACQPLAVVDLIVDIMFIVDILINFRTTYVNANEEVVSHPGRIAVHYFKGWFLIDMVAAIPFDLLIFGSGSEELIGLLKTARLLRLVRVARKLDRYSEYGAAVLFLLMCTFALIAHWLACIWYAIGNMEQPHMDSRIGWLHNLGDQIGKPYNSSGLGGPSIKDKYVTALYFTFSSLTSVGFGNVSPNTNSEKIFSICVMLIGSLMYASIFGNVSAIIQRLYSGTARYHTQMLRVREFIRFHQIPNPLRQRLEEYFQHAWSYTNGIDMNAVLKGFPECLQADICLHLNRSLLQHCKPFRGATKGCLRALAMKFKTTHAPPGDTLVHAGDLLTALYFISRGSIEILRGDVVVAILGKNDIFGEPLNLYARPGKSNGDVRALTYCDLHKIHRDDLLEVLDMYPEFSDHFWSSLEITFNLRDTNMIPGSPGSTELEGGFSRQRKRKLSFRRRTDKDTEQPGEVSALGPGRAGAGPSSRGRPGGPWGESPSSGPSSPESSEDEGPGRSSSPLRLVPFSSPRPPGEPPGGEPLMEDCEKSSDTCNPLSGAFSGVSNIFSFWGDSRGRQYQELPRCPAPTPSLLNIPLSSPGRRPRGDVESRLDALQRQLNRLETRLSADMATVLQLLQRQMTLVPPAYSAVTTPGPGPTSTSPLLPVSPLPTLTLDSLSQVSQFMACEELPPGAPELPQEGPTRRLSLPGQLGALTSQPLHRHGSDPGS

| SMILES | hERG current change (%, negative = inhibition) at 10uM |
| --- | --- |
| c1ccc(CCc2nc(-c3ccccn3)no2)cc1 | -1.19% |
| CCCN1CCN(C(=S)NCc2ccc(Cl)cc2)CC1 | -36% |
| CN(C(=O)COC(=O)COc1ccc(Cl)cc1Cl)c1c(N)n(Cc2ccccc2)c(=O)[nH]c1=O | 24.3% |
| Cc1cc(N2CCC(C)CC2)n2nc(C)c(-c3ccccc3)c2n1 | 5.93% |
| COc1ccccc1NC(=O)Nc1cc(F)ccc1F | 24.4% |
| COc1ccc(CCN2CC(C(=O)NC3CCCCC3)CC2=O)cc1OC (stereo not drawn) | 10.2% |
| CCCCS/C(N)=N/N=C/c1cc(C)ccc1O | 2.19% |
| CCOc1nc(-c2ccccc2Cl)nc2ccccc12 | -8.26% |
| CCOC(=O)Cc1csc(NC(=O)CN2CCCCC2)n1 | 9.3% |
| O=C(Nc1ccccc1)OCCNC(=O)c1cccc(Br)c1 | 8.28% |
| Cc1ccc(C(=O)COC(=O)CN2C(=O)C3C4C=CC(C4)C3C2=O)cc1[N+](=O)[O-] (stereo not drawn) | 21.5% |
| COc1ccc(-c2nc(CS(=O)CC(=O)NC3CCCC3)c(C)o2)cc1OC (stereo not drawn) | -8.51% |
| COc1ccc(NC(=O)Cn2c(C)cc(=O)c3ccccc32)cc1 | -7.76% |
| CCCc1n[nH]c2c1/C(=N\OCC)CC(C)(C)C2 | 0.797% |
| COc1ccc(/C=N/N2C(C)CCCC2C)cc1O (stereo not drawn) | 18.8% |
| O=C(Cn1nc(C(F)F)cc1C1CC1)N1CCCC1 | 1.61% |
| NNC(=O)c1ccc(COc2ccc([N+](=O)[O-])cc2)o1 | -23.1% |
| Cc1ccsc1/C=N/NC(=O)C1C(=O)NCC1c1ccccc1 (stereo not drawn) | 1.53% |
| Nc1ncnc(N)c1N=Nc1ccccc1 | 15% |
| O=C(NCc1ccncc1)C1CCCN1S(=O)(=O)c1ccc(Cl)cc1 (stereo not drawn) | -8.68% |
| Cc1nonc1CN(C)C(=O)c1ccc(OC2CCN(C(=O)c3cccnc3)CC2)cc1 | 32% |
| CC(C)CC(=O)N1CCN(C(=O)c2ccc(-c3ccccc3)cc2)CC1 | -4.45% |
| O=C(CSc1nnc(NC(=O)c2ccc3c(c2)OCO3)s1)NCc1ccco1 | 20% |

| SMILES | hERG current change (%, negative = inhibition) at 10uM |
| --- | --- |
| Cc1noc(C)c1COC(=O)CCCc1c[nH]c2ccccc12 | -0.395% |
| COc1cc(C(=O)N2CCN(C3CCC(C)CC3)CC2)cc(OC)c1OC.O=C(O)C(=O)O (stereo not drawn) | 8.29% |
| Cl.c1coc(CNCc2cccs2)c1 | 6.9% |
| CCc1ccc(C(=O)NCC2COc3ccccc3O2)o1 (stereo not drawn) | -24.3% |
| CCOC(=O)Nc1ccc2ncn(C)c(=O)c2c1 | 15.8% |
| COc1ccc(S(=O)(=O)N2CCC(C(=O)N(C)Cc3ccc(C)o3)CC2)cc1OC | -18.4% |
| Nc1nc(-c2ccco2)nn1C(=O)c1ccccc1 | 19.9% |
| CCOc1cc(C(=O)NCc2ccccc2)ccc1OCC(=O)N1CCOCC1 | 1.44% |
| N#Cc1ccc(C(=O)OCCc2cc3ccccc3c(=O)o2)cc1 | -29% |
| CCOc1ccc(-c2n[nH]c(C)c2-c2ccccc2OC)c(O)c1 | 23.4% |
| O=C(NN1C(=O)/C(=C/c2cccs2)SC1=S)c1ccncc1 | -5.9% |
| COc1cccc(C2C(C(=O)c3cc4ccccc4o3)=C(O)C(=O)N2CCN2CCOCC2)c1 (stereo not drawn) | 16.7% |
| C=CCN(C(=O)c1csnn1)C(C(=O)NC1CCCC1)c1ccccc1F (stereo not drawn) | 8.11% |
| O=C(COc1ccccc1)N1CCN(C(=O)c2ccco2)CC1 | -8.03% |
| C[C@@]12C(=O)N(c3cccc(Cl)c3)C(=O)N1[C@H](c1ccc(Cl)cc1)[C@@H]1C(=O)N(C3CCCCC3)C(=O)[C@@H]12 | 3.04% |
| CCN(c1ccccc1)S(=O)(=O)c1cc2c(cc1C)n(C)c(=O)c(=O)n2C | -32% |
| COc1cc(C)c(Br)cc1S(=O)(=O)N1CCOCC1 | 10.1% |
| COc1ccccc1NC(=O)/C(C#N)=C/c1cccn1C | -4.87% |
| Cc1cccc(NC(=O)COc2coc(CN3CCc4ccccc4C3)cc2=O)c1 | -8.19% |
| Cc1ccc(NC(=O)C(C)NS(=O)(=O)c2ccc(F)cc2)cc1C (stereo not drawn) | 5.74% |
| CCOC(=O)CCC(NC(=O)CCCC(=O)NC(CCC(=O)OCC)C(=O)OCC)C(=O)OCC (stereo not drawn) | 12.5% |
| CC(C)C(=O)Nc1nc(-c2ccc(S(=O)(=O)N3CCOCC3)cc2)cs1 | 9.7% |
| FC(F)(F)c1ccccc1-n1c(-c2ccco2)n[nH]c1=S | 20.5% |

| SMILES | hERG current change (%, negative = inhibition) at 10uM |
| --- | --- |
| O=C(CC(=O)Nc1ccc(Cl)cc1Cl)Nc1ccc(Cl)cc1Cl | 23.2% |
| O=[N+]([O-])c1ccccc1S(=O)(=O)NC1CC2CCC1C2 (stereo not drawn) | -3.7% |
| CC1CCCCN1Cc1nc2ccccc2c(=O)[nH]1 (stereo not drawn) | 3.85% |
| CC(C)c1ccccc1OCCNS(C)(=O)=O | -2.89% |
| O=C(c1ccccc1)N1CCN(C(=S)NCc2ccco2)CC1 | -15.9% |
| Cc1cccc(C)c1-n1c(C)nn(CC#N)c1=O | 19.1% |
| CCn1cc(C(=O)NCC(OC)OC)c(=O)c2cc(S(=O)(=O)N3CCC(C)CC3)ccc21 | -28.8% |
| COCCNC(=S)N1CCOCC1 | 6.9% |
| COc1cc(-c2nc3ccccn3c2/N=C/c2cc(OC)c(OC)c(OC)c2)ccc1O | -28.6% |
| CCOC(=O)N1CCN(c2cc3[nH]c(=S)[nH]c3cc2F)CC1 | 9.95% |
| Cc1ccc(C(=O)N2CCOCC2)cc1S(=O)(=O)N1CCCC1 | 12.7% |
| CCOCC(=O)OCC(=O)Nc1cc(OC)c([N+](=O)[O-])cc1C | 4.01% |
| COC(=O)CN1C(c2ccc(Cl)cc2)=Nc2ccc(Cl)cc2C1c1ccccc1 (stereo not drawn) | -17.7% |
| CCOC(=O)Cn1cnc2sc(C(=O)OC)c(C)c2c1=O | 11.1% |
| O=C(C1CC(=O)N(c2ccc(Cl)cc2)C1)N1CCOCC1 (stereo not drawn) | -0.293% |
| C/C(=N\S(=O)(=O)c1ccc(C)cc1)N1CCN(S(=O)(=O)c2ccccc2)C1C(C)C (stereo not drawn) | -23.6% |
| CC(C)(C)OC(=O)N1CCC(c2cc(=O)n3[nH]c(-c4ccc(Cl)cc4)cc3n2)CC1 | -0.197% |
| CCCCOC(=O)Nc1nc(CC(=O)OCC)cs1 | -25.9% |
| O=C(C1CCC1)N1CCc2cc(S(=O)(=O)NCCN3CCN(c4ccccc4F)CC3)ccc21 | -11.7% |
| C=CCn1c(O)c(C(C)=NCc2cccnc2)c(=O)[nH]c1=O | -3.23% |
| CCN1CCN(c2nc3ccccc3nc2C(C#N)S(=O)(=O)c2ccc(C)c(C)c2)CC1 (stereo not drawn) | -25.4% |
| CS(=O)(=O)N(CC(=O)NCc1ccncc1)c1cc(Cl)cc(Cl)c1 | -32% |
| O=C(/C=C/c1ccc(Cl)cc1Cl)Nc1ccncc1 | 11% |

| SMILES | hERG current change (%, negative = inhibition) at 10uM |
| --- | --- |
| COc1ccc(OCC(O)CNS(=O)(=O)c2ccc(C)cc2)cc1 (stereo not drawn) | 1.43% |
| c1ccc(-c2ccc(CN3C[C@@H]4C(c5ccccc5)C5(c6ccccc6)CC4(C5)[C@H]3c3ccccc3)cc2)cc1 (stereo partly drawn) | -5.02% |
| O=C(NC1CCCC1)C(c1ccncc1)N(C(=O)Cc1cccs1)c1ccccc1 (stereo not drawn) | -1.29% |
| CCOc1ccc(Br)cc1S(=O)(=O)Nc1ccc(Cl)c(S(=O)(=O)N(C)C)c1 | 2.27% |
| COc1ccc(/C=C2/NC(=O)N(CC(=O)Nc3cccc(C)c3)C2=O)cc1O | -14.8% |
| COc1ccc(C(=O)OCC(=O)NC2CCCC2)c(OC)c1 | 16.1% |
| Cc1ccnc2nc(C(=O)NCc3ccccc3)nn12 | 13.1% |
| Cc1[nH]n(-c2ccccc2)c(=O)c1/C=N/N(C)c1ccccc1 | -7.26% |
| COc1ccc(-c2csc3ncn(-c4cccc(C)c4)c(=O)c23)cc1OC | -19.6% |
| Cc1ccnc(NS(=O)(=O)c2ccc(N3C(=O)c4c(Cl)c(Cl)c(Cl)c(Cl)c4C3=O)cc2)n1 | 0.778% |
| O=C(c1ccncc1)N1CCN(CCc2ccccc2)CC1 | -50.8% |
| COc1ccc(S(=O)(=O)N(C)CC(=O)N2CCCC2)cc1Cl | 19.6% |
| CN(C)[C@@H]1C(=O)C(C(N)=O)=C(O)[C@@]2(O)C(=O)C3=C(O)c4c(O)ccc(Cl)c4[C@@H](O)[C@H]3C[C@@H]12.Cl | -18.4% |
| COc1ccc(N2CCN(CCCn3c(=S)[nH]c4ncccc4c3=O)CC2)cc1 | -30.7% |
| Cc1[nH]nc2cn[nH]c12 | 3.52% |
| COc1ccc(CNc2ccc([N+](=O)[O-])cn2)cc1 | 7.49% |
| O=C1c2ccccc2C(=O)N1COc1ccc(S(=O)(=O)N2CCOCC2)cc1[N+](=O)[O-] | -22.8% |
| COc1cc(/C=N/NC(=O)CCC(=O)Nc2ccc(F)cc2)ccc1O | 18.2% |
| COc1ccc(N(C(=O)c2ccco2)S(=O)(=O)c2ccccc2)cc1 | -44.3% |
| CC(=O)NC1=NN(C(C)=O)C(c2ccccc2)S1 (stereo not drawn) | 12.4% |
| Cn1c(=O)c2c(nc(CN3CCCCC3)n2CCc2ccccc2)n(C)c1=O | -14.7% |
